Experimental data reported in the supplement of paper PMC4967469.
A lower IC50 marks a more sensitive line; a limit (>, <) means that the fit lies beyond the doses tested. AUC sums up the same curve from the lowest dose to the 256-fold higher top dose: 1 means no effect, lower means more sensitive. For some assays here: Where the top dose is marked as inferred, it is not printed in the source and was worked back from the curve model.

What was measured:
Assay in all cases: Viability of human cancer cell lines after 72 h of drug (GDSC screen)
AT-7519 = compound: O=C(NC1CCNCC1)c1n[nH]cc1NC(=O)c1c(Cl)cccc1Cl [AT-7519]; settings: top dose 10.24 µM; top dose inferred
Method: (§1)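 Human cancer cell lines in 384-well plates, medium with 10% serum, drug for 72 h over a 256-fold dose range (nine 2-fold or five 4-fold steps up to the top dose). Adherent lines were fixed and stained with the nucleic acid dye Syto60, suspension lines read with resazurin; signal relative to control wells, capped at 0 and 100%. One two-parameter sigmoid per drug and line, fitted in a mixed model over all curves with the slope shared within a line.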

FH535 = compound: Cc1cc([N+](=O)[O-])ccc1NS(=O)(=O)c1cc(Cl)ccc1Cl [FH535]; settings: top dose 32 µM; top dose inferred
Method: as §1

A-443654 = compound: Cc1n[nH]c2ccc(-c3cncc(OC[C@@H](N)Cc4c[nH]c5ccccc45)c3)cc12 [A-443654]; settings: top dose 1.024 µM; top dose inferred
Method: as §1

XMD14-99 = compound: COc1cc(N2CCN(C)CC2)ccc1Nc1nc(N)c(C(=O)c2c(Cl)cccc2Cl)s1 [XMD14-99]; settings: top dose 10.24 µM; top dose inferred
Method: as §1

Dasatinib = compound: Cc1nc(Nc2ncc(C(=O)Nc3c(C)cccc3Cl)s2)cc(N2CCN(CCO)CC2)n1 [Dasatinib]; settings: top dose 1.28 µM
Method: as §1

| Cell Line | AUC (AT-7519) | IC50 (AT-7519) [µM] | AUC (FH535) | IC50 (FH535) [µM] | AUC (A-443654) | IC50 (A-443654) [µM] | AUC (XMD14-99) | IC50 (XMD14-99) [µM] | AUC (Dasatinib) | IC50 (Dasatinib) [µM] |
| --- | --- | --- | --- | --- | --- | --- | --- | --- | --- | --- |
| 8-MG-BA (glioma, adherent) | 0.503 | 0.652 | 0.611 | 3.95 | 0.64 | 0.152 | 0.958 | > 10.2 | 0.605 | 0.152 |
| 697 (lymphoblastic leukaemia, suspension) | 0.206 | 0.111 | 0.725 | 7.44 | 0.388 | 0.0337 | 0.859 | 5.93 | 0.675 | 0.22 |
| A3-KAW (B-cell lymphoma, suspension) | 0.348 | 0.267 | 0.747 | 8.48 | 0.685 | 0.187 | 0.945 | > 10.2 | 0.874 | 0.83 |
| A101D (melanoma, adherent) | 0.851 | > 10.2 | 0.613 | 4.39 | 0.601 | 0.129 | 0.981 | > 10.2 | 0.733 | 0.437 |
| A498 (kidney, adherent) | 0.915 | > 10.2 | 0.978 | > 32 | 0.978 | > 1.02 | 0.966 | > 10.2 | 0.516 | 0.0902 |
| A704 (kidney, adherent) | 0.989 | > 10.2 | 0.462 | 1.58 | 0.661 | 0.177 | 0.989 | > 10.2 | 0.352 | 0.0317 |
| ARH-77 (myeloma, suspension) | 0.396 | 0.335 | 0.878 | 30.4 | 0.742 | 0.305 | 0.904 | > 10.2 | 0.802 | 0.604 |
| ATN-1 (T-cell lymphoblastic leukaemia, suspension) | 0.225 | 0.108 | 0.786 | 12.9 | 0.801 | 0.461 | 0.946 | > 10.2 | 0.977 | > 1.28 |
| BB30-HNC (head and neck, adherent) | 0.495 | 0.619 | 0.547 | 2.69 | 0.702 | 0.234 | 0.982 | > 10.2 | 0.468 | 0.0656 |
| BC-1 (B-cell lymphoma, suspension) | 0.264 | 0.153 | 0.592 | 3.44 | 0.843 | 0.575 | 0.913 | > 10.2 | 0.985 | > 1.28 |
| BC-3 (B-cell lymphoma, suspension) | 0.32 | 0.214 | 0.723 | 7.88 | 0.76 | 0.326 | 0.965 | > 10.2 | 0.969 | > 1.28 |
| BE-13 (lymphoblastic leukaemia, suspension) | 0.322 | 0.212 | 0.71 | 7.47 | 0.8 | 0.457 | 0.94 | > 10.2 | 0.916 | > 1.28 |
| BT-474 (breast, adherent) | 0.737 | 3.35 | 0.645 | 5.31 | 0.803 | – | 0.986 | > 10.2 | 0.983 | > 1.28 |
| Becker (glioma, adherent) | 0.835 | 7.97 | 0.733 | 10.1 | 0.727 | 0.31 | 0.98 | > 10.2 | 0.394 | 0.0394 |
| C2BBe1 (large intestine, adherent) | 0.952 | > 10.2 | 0.729 | 9.89 | 0.916 | > 1.02 | 0.984 | > 10.2 | 0.513 | 0.0873 |
| CA46 (Burkitt lymphoma, suspension) | 0.268 | 0.132 | 0.683 | 6.77 | 0.893 | > 1.02 | 0.923 | > 10.2 | 0.927 | > 1.28 |
| CAS-1 (glioma, adherent) | 0.969 | > 10.2 | 0.715 | 10.3 | 0.869 | > 1.02 | 0.979 | > 10.2 | 0.78 | 0.737 |
| CCRF-CEM (lymphoblastic leukaemia, suspension) | 0.367 | 0.294 | 0.69 | 6.14 | 0.643 | 0.148 | 0.95 | > 10.2 | 0.972 | > 1.28 |
| CL-11 (large intestine, adherent) | 0.98 | > 10.2 | 0.916 | > 32 | 0.955 | > 1.02 | 0.985 | > 10.2 | 0.959 | > 1.28 |
| CMK (acute myeloid leukaemia, suspension) | 0.662 | 1.66 | 0.652 | 4.92 | 0.752 | 0.295 | 0.836 | 5.36 | 0.991 | > 1.28 |
| COLO-320-HSR (large intestine, suspension) | 0.915 | > 10.2 | 0.821 | 15.4 | 0.857 | 0.666 | 0.982 | > 10.2 | 0.983 | > 1.28 |
| COLO-668 (small cell lung carcinoma, adherent) | 0.77 | 3.88 | 0.632 | 4.63 | 0.791 | 0.46 | 0.971 | > 10.2 | 0.986 | > 1.28 |
| COLO-829 (melanoma, adherent) | 0.864 | > 10.2 | 0.351 | 0.635 | 0.933 | > 1.02 | 0.971 | > 10.2 | 0.453 | 0.0561 |
| COR-L95 (small cell lung carcinoma, adherent) | 0.634 | 1.6 | 0.965 | > 32 | 0.787 | 0.523 | 0.982 | > 10.2 | 0.986 | > 1.28 |
